According to PubChem BioAssay (Tox21):
The inconclusive results got no clear call from the source; some entries with a clear call stand among them for comparison. For part of these data: Potencies of inconclusive entries are doubtful fits and often do not repeat. The source made the active and inactive calls. Unless noted, calls follow the shape of the dose curve; as a rule, active = well fitted curve in the direction sought with a large enough effect in the repeat runs; inconclusive = weak or mixed curves; inactive = no such curve, though single readings can be large; an effect the other way counts as inactive or inconclusive.

Experiments:
[1] = target: Peroxisome proliferator-activated receptor gamma (Homo sapiens) (UniProt P37231); assay: qHTS assay to identify small molecule antagonists of the peroxisome proliferator-activated receptor gamma (PPARg) signaling pathway (AID 743191; calls by dose curve; also: nearly all actives have a fitted effect of over 30% in size; as to ratio activity, negative = inhibition: % is scaled to controls: 0 for no effect and ±100 for the full control effect); details: HEK293H PPARg-UAS-bla, beta-lactamase ratio, antagonist, 17 h; ratio activity, negative = inhibition: at 62.6 µM (top of the series) unless noted
UniProt P37231, sequence (P37231 whole entry, looked up): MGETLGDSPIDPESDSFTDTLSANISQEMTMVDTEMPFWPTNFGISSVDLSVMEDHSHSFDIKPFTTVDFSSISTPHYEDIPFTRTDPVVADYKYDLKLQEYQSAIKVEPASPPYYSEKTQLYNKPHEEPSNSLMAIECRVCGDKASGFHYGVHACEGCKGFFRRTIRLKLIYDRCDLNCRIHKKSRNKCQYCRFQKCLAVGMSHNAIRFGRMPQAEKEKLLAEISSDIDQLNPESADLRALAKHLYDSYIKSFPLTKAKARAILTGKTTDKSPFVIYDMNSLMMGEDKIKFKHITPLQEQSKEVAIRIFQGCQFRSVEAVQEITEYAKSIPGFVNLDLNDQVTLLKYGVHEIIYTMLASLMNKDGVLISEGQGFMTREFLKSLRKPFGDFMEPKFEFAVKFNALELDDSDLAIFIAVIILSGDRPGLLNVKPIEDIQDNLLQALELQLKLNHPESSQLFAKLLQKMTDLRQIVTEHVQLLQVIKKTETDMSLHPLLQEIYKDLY
Summary of the method: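 GeneBLAzer PPARg UAS-bla HEK293H cells, 5 h post-plating, exposed to compounds 17 h at 37C. LiveBLAzer B/G FRET substrate added for 1 h at room temperature; beta-lactamase reporter read by fluorescence intensity.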

[2] = qHTS assay to identify small molecule antagonists of the peroxisome proliferator-activated receptor gamma (PPARg) signaling pathway - cell viability counter screen (AID 743194); details: PPARg-bla HEK293H viability, CellTiter-Glo luminescence, 17 h, co-treated with 50 nM rosiglitazone; activity change, negative = cytotoxicity: at 62.6 µM (top of the series) unless noted; also: nearly all actives have a fitted effect of over 55% in size
Summary of the method: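 Cytotoxicity counter screen in PPARg-bla HEK293H cells, same wells as reporter assay. Compounds plus 50 nM rosiglitazone (final) for 17 h at 37 C, then viability read by CellTiter-Glo luminescence.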

[3] = qHTS assay for small molecule agonists of the antioxidant response element (ARE) signaling pathway (AID 743202; active = well fitted activation curve with a large enough effect in the signal ratio in the repeat runs, not every such curve was filed as active; inconclusive = weak or mixed curves, or effect the other way; inactive = no such curve, though single readings can be large or run the other way; the % refers to the signal ratio; as to activation: % is scaled to controls: 0 for no effect and ±100 for the full control effect); details: HepG2 ARE-bla reporter, beta-lactamase FRET, 16 h; activation: at 73.3 µM (top of the series) unless noted
Summary of the method: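 HepG2 ARE-bla cells; 16 h treatment at 37 C; FRET-based beta-lactamase fluorescence read after 2 h substrate incubation at room temperature.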

[4] = qHTS assay for small molecule agonists of the antioxidant response element (ARE) signaling pathway - cell viability counter screen (AID 743203; calls by dose curve; also: nearly all actives have a fitted effect of over 55% in size); details: ARE-bla HepG2 viability, CellTiter-Glo luminescence, 16 h; viability change, negative = cytotoxic: at 73.3 µM (top of the series)
Summary of the method: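 Cytotoxicity was tested in parallel with the ARE reporter screen. ARE-bla HepG2 cells were exposed to compounds for 16 hrs, and viability was taken from CellTiter-Glo luminescence.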

[5] = qHTS assay for small molecule activators of the heat shock response signaling pathway (AID 743210; active = well fitted activation curve with a large enough effect in the signal ratio in the repeat runs, with a control signal flat, not every such curve was filed as active; inconclusive = weak or mixed curves; the % refers to the signal ratio); details: HeLa HSE-bla reporter, beta-lactamase ratio, 5 h; activation: at 62.6 µM (top of the series)
Summary of the method: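 Following overnight attachment, HSE-bla HeLa cells received test compounds for 5 h at 37 C; beta-lactamase activity was then detected via FRET substrate fluorescence.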

[6] = target: Bile acid receptor (Homo sapiens) (UniProt Q96RI1); assay: qHTS assay to identify small molecule antagonists of the farnesoid-X-receptor (FXR) signaling pathway (AID 743217; active = well fitted inhibition curve with a large enough effect in the signal ratio in the repeat runs, not every such curve was filed as active; inconclusive = weak or mixed curves, or effect the other way; inactive = no such curve, though single readings can be large or run the other way; the % refers to the signal ratio; as to activity change, negative = inhibition: % is scaled to controls: 0 for no effect and ±100 for the full control effect); details: HEK293T FXR-UAS-bla, beta-lactamase ratio, CDCA-stimulated, 16 h; activity change, negative = inhibition: at 62.6 µM (top of the series) unless noted
UniProt Q96RI1, sequence (Q96RI1 whole entry, looked up): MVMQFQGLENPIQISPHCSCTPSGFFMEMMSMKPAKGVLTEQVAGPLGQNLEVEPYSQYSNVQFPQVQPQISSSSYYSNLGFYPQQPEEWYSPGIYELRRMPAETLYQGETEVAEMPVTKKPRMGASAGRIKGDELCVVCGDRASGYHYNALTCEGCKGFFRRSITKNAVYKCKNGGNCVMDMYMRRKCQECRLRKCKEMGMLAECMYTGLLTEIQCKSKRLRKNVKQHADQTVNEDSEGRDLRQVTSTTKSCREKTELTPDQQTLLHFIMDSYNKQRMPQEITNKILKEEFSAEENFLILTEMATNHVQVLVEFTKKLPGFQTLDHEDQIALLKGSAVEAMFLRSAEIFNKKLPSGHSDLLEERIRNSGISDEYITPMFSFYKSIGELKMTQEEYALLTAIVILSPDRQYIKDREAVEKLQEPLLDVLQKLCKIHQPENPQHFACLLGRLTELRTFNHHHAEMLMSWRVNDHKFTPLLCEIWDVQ
Summary of the method: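 Cells carrying a UAS-driven beta-lactamase reporter (GeneBLAzer FXR-UAS-bla HEK 293T) were plated and rested 5 h at 37 °C. Compounds in DMSO were added alongside chenodeoxycholic acid agonist at 50 uM final and left 16 h at 37 °C before FRET substrate readout.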

[7] = qHTS assay to identify small molecule agonists of the farnesoid-X-receptor (FXR) signaling pathway - cell viability counter screen (AID 743218); details: FXR-bla HEK293T viability, CellTiter-Glo luminescence, 16 h; viability change, negative = cytotoxic: at 62.6 µM (top of the series) unless noted; also: nearly all actives have a fitted effect of over 45% in size; as to viability change, negative = cytotoxic: % is scaled to controls: 0 for no effect and ±100 for the full control effect
Summary of the method: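 Cells were seeded, left 5 h at 37 C and 5% CO2, then dosed with compound in DMSO for 16 h. After the beta-lactamase FRET read, CellTiter-Glo was added and luminescence measured 30 min later.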

[8] = target: Bile acid receptor (Homo sapiens) (UniProt Q96RI1); assay: qHTS assay to identify small molecule agonists of the farnesoid-X-receptor (FXR) signaling pathway (AID 743220; active = well fitted activation curve with a large enough effect in the signal ratio in the repeat runs, not every such curve was filed as active; inconclusive = weak or mixed curves, or effect the other way; the % refers to the signal ratio); details: HEK293T FXR-UAS-bla, beta-lactamase FRET ratio, 16 h; activation: at 62.6 µM (top of the series) unless noted
Summary of the method: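 FXR-UAS-bla HEK 293T cells carrying a UAS-driven beta-lactamase reporter were plated for 5 h at 37C/5% CO2, then exposed to DMSO-dissolved Tox21 10K compounds for 16 h at 37C. A LiveBLAzer B/G FRET substrate was loaded for 2 h at room temperature before fluorescence reading.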

[9] = qHTS assay to identify small molecule antagonists of the farnesoid-X-receptor (FXR) signaling pathway - cell viability counter screen (AID 743221; active = well fitted cell-killing curve with a large enough effect in the repeat runs, not every such curve was filed as active; inconclusive = weak or mixed curves, or effect the other way; inactive = no such curve, though single readings can be large or run the other way; also: nearly all actives have a fitted effect of over 50% in size); details: FXR-bla HEK293T viability, CellTiter-Glo luminescence, 16 h; activity change, negative = cytotoxicity: at 62.6 µM (top of the series)
Summary of the method: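 Multiplexed counter screen: viability of FXR-bla HEK 293T cells under agonist stimulation by chenodeoxycholic acid (50 uM, final) and test compound for 16 h at 37 C, measured by CellTiter-Glo luminescence in the reporter wells.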

[10] = target: Vitamin D3 receptor (Homo sapiens) (UniProt P11473); assay: qHTS assay to identify small molecule agonists of the vitamin D receptor (VDR) signaling pathway (AID 743222; calls by dose curve); details: HEK293T VDR-UAS-bla, beta-lactamase FRET ratio, 16 h; activation: at 63.5 µM (top of the series) unless noted
UniProt P11473, sequence (P11473 whole entry, looked up): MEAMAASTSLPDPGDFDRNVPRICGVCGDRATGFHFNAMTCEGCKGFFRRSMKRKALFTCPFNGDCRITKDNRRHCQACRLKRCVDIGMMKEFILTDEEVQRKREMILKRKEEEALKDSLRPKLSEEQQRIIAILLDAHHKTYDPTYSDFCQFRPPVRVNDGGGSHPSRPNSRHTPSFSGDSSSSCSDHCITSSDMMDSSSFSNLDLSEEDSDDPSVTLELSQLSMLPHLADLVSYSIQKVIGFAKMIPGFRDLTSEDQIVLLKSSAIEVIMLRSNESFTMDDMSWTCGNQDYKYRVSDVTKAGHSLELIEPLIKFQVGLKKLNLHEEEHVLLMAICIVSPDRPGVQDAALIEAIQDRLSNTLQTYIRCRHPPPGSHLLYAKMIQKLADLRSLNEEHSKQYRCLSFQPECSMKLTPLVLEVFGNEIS
Summary of the method: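 Cells carrying a VDR-driven beta-lactamase reporter are seeded at 2,000 per well and rested 4 h. Compounds in DMSO are added for 16 h at 37C, and FRET substrate fluorescence is measured after 2 h at room temperature.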

[11] = target: Vitamin D3 receptor (Homo sapiens) (UniProt P11473); assay: qHTS assay to identify small molecule antagonists of the vitamin D receptor (VDR) signaling pathway (AID 743223; active = well fitted inhibition curve with a large enough effect in the signal ratio in the repeat runs, not every such curve was filed as active; inconclusive = weak or mixed curves, or effect the other way; inactive = no such curve, though single readings can be large or run the other way; the % refers to the signal ratio); details: VDR-UAS-bla HEK293T, beta-lactamase FRET ratio, 16 h; activity change, negative = inhibition: at 61 µM (top of the series) unless noted
Summary of the method: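 Cells carrying a VDR-driven beta-lactamase reporter (VDR-bla) were co-treated with compound and 3 nM final 1alpha,25-dihydroxyvitamin D3 for 16 h at 37C; reporter activity was measured as FRET substrate fluorescence after 2 h at room temperature.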

[12] = qHTS assay to identify small molecule agonists of the peroxisome proliferator-activated receptor delta (PPARd) signaling pathway - cell viability counter screen (AID 743211); details: PPARd-bla HEK293H viability, CellTiter-Glo luminescence, 17 h; activity change, negative = cytotoxicity: at 62.6 µM (top of the series); also: nearly all actives have a fitted effect of over 55% in size
Summary of the method: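 Counter screen for cytotoxicity run in parallel with the PPARd reporter screen. Beta-lactamase reporter HEK293H cells exposed to compounds 17 h; ATP-based CellTiter-Glo luminescence quantified viability.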

[13] = qHTS assay to identify small molecule antagonists of the peroxisome proliferator-activated receptor delta (PPARd) signaling pathway - cell viability counter screen (AID 743213); details: PPARd-bla HEK293H viability, CellTiter-Glo luminescence, 17 h; viability change, negative = cytotoxic: at 62 µM (top of the series) unless noted; also: nearly all actives have a fitted effect of over 50% in size
Summary of the method: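 Luminescence from CellTiter-Glo, added after the bla read and incubated 30 min at room temperature, gives viability of HEK293H PPARd-bla cells exposed to compounds for 17 h at 37 C with 300 nM L165041.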

[14] = qHTS assay to identify small molecule antagonists of the vitamin D receptor (VDR) signaling pathway - cell viability counter screen (AID 743225); details: VDR-bla HEK293T viability, CellTiter-Glo luminescence, 16 h; viability change, negative = cytotoxic: at 61 µM (top of the series) unless noted; also: nearly all actives have a fitted effect of over 50% in size
Summary of the method: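 HEK293T VDR-bla; cpd + 1a,25-(OH)2D3 3 nM final, 16 h 37C/5% CO2; B/G FRET substrate 2 h RT; then CellTiter-Glo 30 min RT, luminescence.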

[15] = qHTS assay for small molecule activators of the heat shock response signaling pathway - cell viability counter screen (AID 743209); details: HSE-bla HeLa viability, CellTiter-Glo luminescence, 5 h; activity change, negative = cytotoxicity: at 62.6 µM (top of the series) unless noted; also: nearly all actives have a fitted effect of over 50% in size
Summary of the method: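 Cytotoxicity counter screen run in parallel with the HSE beta-lactamase reporter, using the same wells. HeLa HSE-bla cells received compound for 5 h at 37 C; ATP-based CellTiter-Glo luminescence was measured after 30 min at room temperature.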

[16] = target: Peroxisome proliferator-activated receptor delta (Homo sapiens) (UniProt Q03181); assay: qHTS assay to identify small molecule antagonists of the peroxisome proliferator-activated receptor delta (PPARd) signaling pathway (AID 743215; active = well fitted inhibition curve with a large enough effect in the signal ratio in the repeat runs, not every such curve was filed as active; inconclusive = weak or mixed curves, or effect the other way; inactive = no such curve, though single readings can be large or run the other way; the % refers to the signal ratio;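 also: cells stimulated with agonist L165041 at 300 nM final during compound exposure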); details: HEK293H PPARd-UAS-bla, beta-lactamase FRET ratio, antagonist, 17 h; ratio activity, negative = inhibition: at 62 µM (top of the series) unless noted
UniProt Q03181, sequence (Q03181 whole entry, looked up): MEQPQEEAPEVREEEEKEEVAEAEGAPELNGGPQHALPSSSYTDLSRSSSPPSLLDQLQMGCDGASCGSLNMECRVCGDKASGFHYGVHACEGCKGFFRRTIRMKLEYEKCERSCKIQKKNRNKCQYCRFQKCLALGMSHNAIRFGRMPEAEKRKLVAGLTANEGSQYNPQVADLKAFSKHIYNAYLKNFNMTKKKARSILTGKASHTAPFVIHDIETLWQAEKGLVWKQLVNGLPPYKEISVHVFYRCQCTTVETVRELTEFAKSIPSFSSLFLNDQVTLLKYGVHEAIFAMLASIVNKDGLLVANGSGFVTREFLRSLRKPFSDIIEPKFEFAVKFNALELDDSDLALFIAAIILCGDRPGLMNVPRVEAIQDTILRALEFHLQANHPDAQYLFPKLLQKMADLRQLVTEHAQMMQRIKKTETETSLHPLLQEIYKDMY
Summary of the method: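 Cells: HEK293H with a UAS-driven beta-lactamase reporter responsive to PPARd. Compounds were co-added with L165041 (300 nM, final) and incubated 17 h at 37 C before a 2 h room-temperature FRET substrate step and fluorescence reading.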

[17] = qHTS assay to identify small molecule agonists of the vitamin D receptor (VDR) signaling pathway - cell viability counter screen (AID 743224); details: VDR-bla HEK293T viability, CellTiter-Glo luminescence, 16 h; activity change, negative = cytotoxicity: at 62.6 µM (top of the series) unless noted; also: nearly all actives have a fitted effect of over 50% in size
Summary of the method: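 Cells: VDR-bla, 2,000/well, settled 4 h. Treatment: compounds in DMSO, 16 h, 37C/5% CO2. Readout: CellTiter-Glo luminescence after 30 min RT.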
Potency is read from the fitted curve at half-maximal effect; tags tell the direction and shape of the fitted curve or compound fluorescence and quenching.

c1ccc2occc2c1
inconclusive: ratio activity, negative = inhibition [1] 22.1% | Potency [2] 0.245 µM [rising, partial curve, poor fit] | activation [3] 21.9% [phenotype inactive] | Potency [4] 13.7 µM [cytotoxic, partial curve, poor fit] | Potency [5] 56.2 µM [activator] | activity change, negative = inhibition [6] 11.2% | viability change, negative = cytotoxic [7] 31.7% | Potency [8] 0.306 µM [rising, partial curve, poor fit] | Potency [9] 0.309 µM [phenotype inactive, full curve, poor fit] | Potency [10] 54.9 µM | activity change, negative = inhibition [11] -7.18%

COc1ccccc1OCCNCC(O)COc1cccc2[nH]c3ccccc3c12 (stereo unspecified)
active: Potency [12] 23.7 µM | Potency [7] 26.6 µM
inconclusive: Potency [1] 26.6 µM [inhibitor, partial curve, poor fit] | Potency [2] 29.8 µM [cytotoxic, partial curve, poor fit] | activation [3] -4.92% | Potency [13] 9.44 µM [cytotoxic, partial curve, poor fit] | Potency [6] 33.5 µM [inhibitor, single point] | Potency [9] 21.1 µM [falling, partial curve] | activity change, negative = inhibition [11] -32.1% | Potency [14] 30.1 µM [cytotoxic, partial curve, poor fit]

CCCCCCC(C)Nc1ccc(Nc2ccccc2)cc1 (stereo unspecified)
active: Potency [15] 49 µM | Potency [16] 49 µM | Potency [9] 49 µM | Potency [17] 38.9 µM | Potency [14] 43.6 µM
inactive: Potency [4]
inconclusive: Potency [1] 61.6 µM | Potency [2] 49 µM [cytotoxic] | Potency [3] 19.3 µM [rising, partial curve, poor fit] | Potency [5] 43.6 µM [falling, partial curve, poor fit] | Potency [13] 54.9 µM [cytotoxic, single point] | Potency [6] 49 µM | Potency [7] 54.9 µM [cytotoxic, single point] | Potency [8] 61.6 µM [falling, partial curve, poor fit] | Potency [11] 54.9 µM
